Source: patent publication US12583836B2 (Anaxis Pharma Pty Ltd, priority 2020, dated 2026)

How the values were obtained:
[1] = system: U937 human histiocytic leukemia cell line; test: Inhibition of TSQ induced necroptosis, 384 well plate format (CellTitre-Glo); details: Homo sapiens, U-937; U937 cells, TSQ cocktail (TNF, Smac mimetic, Q-VD-OPh), CelltiterGlo; read-out: Inhibition of TSQ-induced necroptosis (IC50 cell-based assay)
Description: […] ASSAY: Screening compounds for inhibition of TSQ induced necroptosis, 384 well plate format.
Cell Line ID: U937 human histiocytic leukemia cell line.
Cell Concentration (cells/well): Final cell density is 20000 cells per well.
Cell growth medium: HT-RPMI medium+7.4% Fetal Bovine Serum (FBS). Cells are cultured in Corning 150 cm^2 tissue culture flasks with vented caps at 37° C./5% CO2.
Incubation: Plates were incubated at 37° C./5% CO2 in a humidified incubator for 48 hours following addition of compounds and death stimuli (TSQ cocktail).
Compound concentration: 36 μM starting concentration, 1:3 dilution, 10 point
DMSO final concentration (% v/v): 0.3%.
Compounds in TSQ cocktail (T: TNF; S: Smac mimetic; Q: Q-VD-OPh) and their final concentrations:
hTNF-Fc (100 ng/ml)—produced by standard procedures as shown in Bossen et al., J Biol Chem, 2006, 281(20), 13964-13971.
Compound A (500 nM)—Smac mimetic, Tetralogic and SYNthesis med chem
Q-VD-OPh (10 μM)—MP Biomedicals
The cellular assay was carried out according to the following steps: • 1. Each well was prepared by sequential addition of: • a. DMSO (control; columns 1-2 and 23-24) or compound in DMSO—addition was performed using acoustic transfer of nl volumes of stock compound to give final test concentrations of 36, 12, 4, 1.3, 0.44, 0.148, 0.049, 0.016, 0.005 and 0.002 μM. All wells were backfilled with DMSO to a final total volume in the well of 100 nl. • b. Following compound/DMSO addition in step (a), 40 μL of cell suspension (5×10^5 cells/mL) was added to provide a final cell concentration of 20,000 cells per well, and • c. Following cell addition in step (b), 10 μL of 5×TSQ cocktail (except to positive controls; columns 1 and 23) was added to each well. • 2. After 48 hours, plate was removed from the 37° C. incubator and equilibrated to room temperature for 45 minutes. • 3. 15 μL of room temperature CellTitre-Glo2™ (Promega™) was added to each well. • 4. Shook plates for 2 minutes (˜600 rpm) and incubated at room temperature for 15 minutes to allow signal to stabilise. • 5. Read luminescence readout on a plate reader. Analysis:
Percent viability was calculated for each compound according to equation (2):
[formula] • wherein • RawData is the readout of any cell containing a compound of the invention • TA is the total activity provided by the luminescence readout from DMSO only wells (columns 2 and 24)=100% viability • NSA is the non-specific activity provided by DMSO+TSQ wells (columns 1 and 23)=0% viability
Curve fitting: 10-point titration curves are fitted with the 4-parameter logistic nonlinear regression model and the IC50 reported is the inflection point of the curve.
Analysis: Data was loaded into Dotmatics™ and visualised using the Tibco® Spotfire™ software. 10 points titration curves were fitted with the 4-parameter logistic nonlinear regression model and the IC50 reported reflect the inflection point of the curve for curve fitting.
Assay involving the TSQ cocktail (T: TNF; S: Smac mimetic; Q: Q-VD-OPh): TSQ treatment ensures that cells specifically undergo necroptotic cell death. TNF activates the TNF receptor, Smac mimetic directs the signal away from proinflammatory signaling and toward the RIP1/RIP3-mediated cell death pathways, and Q-VD-OPh ensures that the apoptotic response is blocked leaving only the programmed necrosis response. The compounds' activity (solution in DMSO) tested in this TSQ-induced assay was evaluated by determining the number of viable cells in culture by measuring the amount of ATP present as measured by CelltiterGlo.

U937 cells = test: Counter screen: cell viability without the TSQ cocktail (CelltiterGlo); parameters: species or system human; details: Homo sapiens, U-937, cell viability by CelltiterGlo, read-out: Off-target effect (IC50 cell-based assay)
Description: Counter screen: In parallel, all compounds were tested for their ability to affect cell viability. The same U937 cells were treated with compound in DMSO without the TSQ cocktail. This counter screen enabled evaluation of off-target effects. In this case, cell viability was measured by CelltiterGlo.

MLKL (full length) = target: T1, MLKL (full length) (Homo sapiens, UniProt Q8NB16); test: KINOMEscan binding assay, MLKL; details: equilibrium dissociation constant, class symbols
T1 construct: purchased DiscoverX (KINOMEscan service); host or cells: E. coli BL21-derived (T7 phage) or HEK293
T1 sequence (Q8NB16 1-471): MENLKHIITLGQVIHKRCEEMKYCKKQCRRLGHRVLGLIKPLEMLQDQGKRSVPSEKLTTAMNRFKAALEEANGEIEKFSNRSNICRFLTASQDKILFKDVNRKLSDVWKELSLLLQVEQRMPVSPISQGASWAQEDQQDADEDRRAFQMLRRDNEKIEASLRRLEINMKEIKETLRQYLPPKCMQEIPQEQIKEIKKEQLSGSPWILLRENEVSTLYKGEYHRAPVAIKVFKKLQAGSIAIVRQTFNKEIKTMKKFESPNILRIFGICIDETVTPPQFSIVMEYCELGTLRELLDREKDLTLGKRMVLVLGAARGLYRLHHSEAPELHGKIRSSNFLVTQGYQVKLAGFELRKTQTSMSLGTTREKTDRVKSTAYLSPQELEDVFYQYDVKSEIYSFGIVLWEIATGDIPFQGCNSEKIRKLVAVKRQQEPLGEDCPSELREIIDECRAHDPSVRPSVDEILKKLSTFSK
From the text: The Hill Slope was set to −1.

RIP1 = target: T2, RIP1 (Homo sapiens, UniProt Q13546); test: KINOMEscan binding assay, RIP1; details: equilibrium dissociation constant, class symbols
T2 construct: purchased DiscoverX (KINOMEscan service); host or cells: E. coli BL21-derived (T7 phage) or HEK293
T2 sequence (Q13546 1-671): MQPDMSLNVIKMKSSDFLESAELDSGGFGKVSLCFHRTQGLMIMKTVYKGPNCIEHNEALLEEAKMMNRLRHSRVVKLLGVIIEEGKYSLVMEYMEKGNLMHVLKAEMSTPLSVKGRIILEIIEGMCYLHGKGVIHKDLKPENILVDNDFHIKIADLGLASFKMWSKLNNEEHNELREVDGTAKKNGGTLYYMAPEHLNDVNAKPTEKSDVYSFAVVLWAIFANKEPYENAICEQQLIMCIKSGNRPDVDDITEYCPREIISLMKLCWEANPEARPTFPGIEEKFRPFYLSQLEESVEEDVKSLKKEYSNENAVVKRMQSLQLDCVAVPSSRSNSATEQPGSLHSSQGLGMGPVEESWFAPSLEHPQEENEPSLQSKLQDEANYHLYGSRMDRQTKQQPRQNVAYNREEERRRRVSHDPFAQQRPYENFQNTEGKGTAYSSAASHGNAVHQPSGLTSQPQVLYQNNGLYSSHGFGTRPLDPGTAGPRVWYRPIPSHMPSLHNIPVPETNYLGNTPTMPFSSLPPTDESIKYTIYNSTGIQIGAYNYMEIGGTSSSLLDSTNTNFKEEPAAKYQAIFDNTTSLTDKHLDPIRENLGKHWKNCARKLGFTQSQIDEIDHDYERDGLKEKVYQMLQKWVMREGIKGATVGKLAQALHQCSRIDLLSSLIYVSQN

SMILES	Kd (MLKL (full length))	Kd (RIP1)	IC50 [1]	IC50 (U937 cells)
CCS(=O)(=O)Nc1ccc(-c2n[nH]c(Nc3cnccn3)c2C(N)=O)cc1OCc1ccccc1 [Compound 25, 3-(3-(benzyloxy)-4-(ethylsulfonamido)phenyl)-5-(pyrazin-2-ylamino)-1H-pyrazole-4-carboxamide]	< 10 nM	> 30000 nM	10 to 1000 nM	> 30000 nM
NC(=O)c1c(-c2ccc(NS(=O)(=O)C(F)F)cc2)n[nH]c1Nc1cccc(C(F)(F)F)n1 [Compound 53, 3-(4-((difluoromethyl)sulfonamido)phenyl)-5-((6-(trifluoromethyl)pyridin-2-yl)amino)-1H-pyrazole-4-carboxamide]	< 10 nM	> 30000 nM	10 to 1000 nM	> 30000 nM
NC(=O)c1c(-c2ccc(NS(=O)(=O)CC(F)(F)F)c(OCc3ccc(F)cc3)c2)n[nH]c1Nc1cnccn1 [Compound 170, 3-(3-((4-fluorobenzyl)oxy)-4-((2,2,2-trifluoroethyl)sulfonamido)phenyl)-5-(pyrazin-2-ylamino)-1H-pyrazole-4-carboxamide]	< 10 nM	> 30000 nM	10 to 1000 nM	> 30000 nM
C[C@H](Oc1cc(-c2n[nH]c(Nc3cnccn3)c2C(N)=O)ccc1NS(=O)(=O)CC(F)(F)F)c1ccc(Cl)cc1 [Compound 259, 3-{3-[(1S)-1-(4-chlorophenyl)ethoxy]-4-(2,2,2-trifluoroethane-sulfonamido)phenyl}-5-[(pyrazin-2-yl)amino]-1H-pyrazole-4-carboxamide]	< 10 nM	> 30000 nM	> 30000 nM	> 30000 nM

The next lines start with results.

Kd (MLKL (full length))	Kd (RIP1)	SMILES	IC50 [1]	IC50 (U937 cells)
< 10 nM	> 30000 nM	NC(=O)c1c(-c2ccc(NS(=O)(=O)C(F)F)c(OCc3ccc(F)cc3)c2)n[nH]c1Nc1cnccn1 [Compound 202, 3-(4-((difluoromethyl)sulfonamido)-3-((4-fluorobenzyl)oxy)phenyl)-5-(pyrazin-2-ylamino)-1H-pyrazole-4-carboxamide]	10 to 1000 nM	> 30000 nM
< 10 nM	> 30000 nM	NC(=O)c1c(-c2ccc(NS(=O)(=O)CC(F)(F)F)cc2OCc2ccc(F)cc2)n[nH]c1Nc1cnccn1 [Compound 139, 3-(2-((4-fluorobenzyl)oxy)-4-((2,2,2-trifluoroethyl)sulfonamido)phenyl)-5-(pyrazin-2-ylamino)-1H-pyrazole-4-carboxamide]	10 to 1000 nM	> 30000 nM
< 10 nM	> 30000 nM	C[C@H](Oc1cc(-c2n[nH]c(Nc3cc(C(C)(C)C)on3)c2C(N)=O)ccc1NS(=O)(=O)C(F)F)c1ccc(F)cc1 [Compound 282, (S)-5-((5-(tert-butyl)isoxazol-3-yl)amino)-3-(4-((difluoromethyl)sulfonamido)-3-(1-(4-fluorophenyl)ethoxy)phenyl)-1H-pyrazole-4-carboxamide]	< 10 nM	1000 to 30000 nM
< 10 nM	> 30000 nM	CCS(=O)(=O)Nc1ccc(-c2n[nH]c(Nc3cnc(C(C)C)cn3)c2C(N)=O)cc1 [Compound 66, 3-(4-(ethylsulfonamido)phenyl)-5-((5-isopropylpyrazin-2-yl)amino)-1H-pyrazole-4-carboxamide]	10 to 1000 nM	> 30000 nM
< 10 nM	> 30000 nM	COc1cnc(Nc2[nH]nc(-c3ccc(NS(=O)(=O)CC(F)(F)F)c(OCc4ccc(F)cc4)c3)c2C(N)=O)cn1 [Compound 143, 3-(3-((4-fluorobenzyl)oxy)-4-((2,2,2-trifluoroethyl)sulfonamido)phenyl)-5-((5-methoxypyrazin-2-yl)amino)-1H-pyrazole-4-carboxamide]	10 to 1000 nM	> 30000 nM
< 10 nM	> 30000 nM	CCC(Oc1cc(-c2n[nH]c(Nc3cnccn3)c2C(N)=O)ccc1NS(=O)(=O)C(F)F)c1ccc(F)cc1 (racemic) [Compound 233, 3-[4-(difluoromethanesulfonamido)-3-[1-(4-fluorophenyl)propoxy]phenyl]-5-[(pyrazin-2-yl)amino]-1H-pyrazole-4-carboxamide]	10 to 1000 nM	> 30000 nM
